{
  "source": "patent US12043670B2",
  "about": "“Anti-BCMA antibody-drug conjugates and methods of use” (Eisai R&D Management Co., Ltd., priority 2020, dated 2024)",
  "data": [
    {"assay": "ThermoFluor thermostability (Tm)", "format": "physicochemical", "settings": "Heavy chain screening Round 1; Fab, paired with light chain AB200_VK6", "units": {"Tm": "°C"}, "values": [
      {"molecule": "AB200-R1a-Fab_VH18 (antibody) heavy: QVQLVQSGAEVKKPGSSVKVSCKASGGTFSNYWMHWVRQAPGQGLEWMGATYKGHSDTYYNQKFKGRVTITADESTSTAYMELSSLRSEDTAVYYCARGAIYHGYEVLDNWGQGTLVTVSSASTKGPSVFPLAPSSKSTSGGTAALGCLVKDYFPEPVTVSWNSGALTSGVHTFPAVLQSSGLYSLSSVVTVPSSSLGTQTYICNVNHKPSNTKVDKKVEPKSC light: DIQMTQSPSSLSASVGDRVTITCSATQDISNYLNWYQQKPGKAPKLLIYFTSNLQSGVPSRFSGSGSGTDFTLTISSLQPEDFATYYCQQYRKLPWTFGQGTKLEIKRTVAAPSVFIFPPSDEQLKSGTASVVCLLNNFYPREAKVQWKVDNALQSGNSQESVTEQDSKDSTYSLSSTLTLSKADYEKHKVYACEVTHQGLSSPVTKSFNRGEC", "Tm": 82.877},
      {"molecule": "AB200-R1a-Fab_VH19 (antibody) heavy: QVQLVQSGAEVKKPGSSVKVSCKASGGSFSNYWMQWVRQAPGQGLEWMGATYRGHSDTYYNQKFKGRVTITADKSTSTAYMELSSLRSEDTAVYYCARGSIYHGYDVLDNWGQGTLVTVSSASTKGPSVFPLAPSSKSTSGGTAALGCLVKDYFPEPVTVSWNSGALTSGVHTFPAVLQSSGLYSLSSVVTVPSSSLGTQTYICNVNHKPSNTKVDKKVEPKSC light: DIQMTQSPSSLSASVGDRVTITCSATQDISNYLNWYQQKPGKAPKLLIYFTSNLQSGVPSRFSGSGSGTDFTLTISSLQPEDFATYYCQQYRKLPWTFGQGTKLEIKRTVAAPSVFIFPPSDEQLKSGTASVVCLLNNFYPREAKVQWKVDNALQSGNSQESVTEQDSKDSTYSLSSTLTLSKADYEKHKVYACEVTHQGLSSPVTKSFNRGEC", "Tm": 77.727},
      {"molecule": "AB200-R1a-Fab_VH20 (antibody) heavy: QVQLVQSGAEVKKPGSSVKVSCKASGGTFSNYWMHWVRQAPGQGLEWMGATIRGHSQTYYNQKFQGRVTITADKSTSTAYMELSSLRSEDTAVYYCARGAIYHGYDVLDNWGQGTLVTVSSASTKGPSVFPLAPSSKSTSGGTAALGCLVKDYFPEPVTVSWNSGALTSGVHTFPAVLQSSGLYSLSSVVTVPSSSLGTQTYICNVNHKPSNTKVDKKVEPKSC light: DIQMTQSPSSLSASVGDRVTITCSATQDISNYLNWYQQKPGKAPKLLIYFTSNLQSGVPSRFSGSGSGTDFTLTISSLQPEDFATYYCQQYRKLPWTFGQGTKLEIKRTVAAPSVFIFPPSDEQLKSGTASVVCLLNNFYPREAKVQWKVDNALQSGNSQESVTEQDSKDSTYSLSSTLTLSKADYEKHKVYACEVTHQGLSSPVTKSFNRGEC", "Tm": 81.584},
      {"molecule": "AB200-R1a-Fab_VH21 (antibody) heavy: QVQLVQSGAEVKKPGSSVKVSCKASGGTFSNYAMHWVRQAPGQGLEWMGATYRGQSDTYYNQKYKGRVTITADKSTSTAYMELSSLRSEDTAVYYCARGAIYHGYDVLDNWGQGTLVTVSSASTKGPSVFPLAPSSKSTSGGTAALGCLVKDYFPEPVTVSWNSGALTSGVHTFPAVLQSSGLYSLSSVVTVPSSSLGTQTYICNVNHKPSNTKVDKKVEPKSC light: DIQMTQSPSSLSASVGDRVTITCSATQDISNYLNWYQQKPGKAPKLLIYFTSNLQSGVPSRFSGSGSGTDFTLTISSLQPEDFATYYCQQYRKLPWTFGQGTKLEIKRTVAAPSVFIFPPSDEQLKSGTASVVCLLNNFYPREAKVQWKVDNALQSGNSQESVTEQDSKDSTYSLSSTLTLSKADYEKHKVYACEVTHQGLSSPVTKSFNRGEC", "Tm": 82.366}
    ]},
    {"assay": "ThermoFluor thermostability (Tm)", "format": "physicochemical", "settings": "Light chain screening Round 1; Fab, paired with heavy chain AB200_D99H", "units": {"Tm": "°C"}, "values": [
      {"molecule": "AB200-R1a-Fab_Vk10 (antibody) heavy: QVQLVQSGAEVKKPGSSVKVSCKASGGTFSNYWMHWVRQAPGQGLEWMGATYRGHSDTYYNQKFKGRVTITADKSTSTAYMELSSLRSEDTAVYYCARGAIYHGYDVLDNWGQGTLVTVSSASTKGPSVFPLAPSSKSTSGGTAALGCLVKDYFPEPVTVSWNSGALTSGVHTFPAVLQSSGLYSLSSVVTVPSSSLGTQTYICNVNHKPSNTKVDKKVEPKSC light: DIQMTQSPSSLSASVGDRVTITCSASQSISNYLNWYQQKPGKAPKLLIYYTSNLHSGVPSRFSGSGSGTDFTLTISSLQPEDFATYYCQQSRKMPWTFGQGTKLEIKRTVAAPSVFIFPPSDEQLKSGTASVVCLLNNFYPREAKVQWKVDNALQSGNSQESVTEQDSKDSTYSLSSTLTLSKADYEKHKVYACEVTHQGLSSPVTKSFNRGEC", "Tm": 86.11},
      {"molecule": "AB200-R1a-Fab_Vk11 (antibody) heavy: QVQLVQSGAEVKKPGSSVKVSCKASGGTFSNYWMHWVRQAPGQGLEWMGATYRGHSDTYYNQKFKGRVTITADKSTSTAYMELSSLRSEDTAVYYCARGAIYHGYDVLDNWGQGTLVTVSSASTKGPSVFPLAPSSKSTSGGTAALGCLVKDYFPEPVTVSWNSGALTSGVHTFPAVLQSSGLYSLSSVVTVPSSSLGTQTYICNVNHKPSNTKVDKKVEPKSC light: DIQMTQSPSSLSASVGDRVTITCRASQDVSNYLNWYQQKPGKAPKLLIYYTTNLHSGVPSRFSGSGSGTDFTLTISSLQPEDFATYYCQQYRKLPWTFGQGTKLEIKRTVAAPSVFIFPPSDEQLKSGTASVVCLLNNFYPREAKVQWKVDNALQSGNSQESVTEQDSKDSTYSLSSTLTLSKADYEKHKVYACEVTHQGLSSPVTKSFNRGEC", "Tm": 83.58},
      {"molecule": "AB200-R1a-Fab_Vk12 (antibody) heavy: QVQLVQSGAEVKKPGSSVKVSCKASGGTFSNYWMHWVRQAPGQGLEWMGATYRGHSDTYYNQKFKGRVTITADKSTSTAYMELSSLRSEDTAVYYCARGAIYHGYDVLDNWGQGTLVTVSSASTKGPSVFPLAPSSKSTSGGTAALGCLVKDYFPEPVTVSWNSGALTSGVHTFPAVLQSSGLYSLSSVVTVPSSSLGTQTYICNVNHKPSNTKVDKKVEPKSC light: DIQMTQSPSSLSASVGDRVTITCSASQDISNYLNWYQQKPGKAPKLLIYYATNLHSGVPSRFSGSGSGTDFTLTISSLQPEDFATYYCQQYRRLPWTFGQGTKLEIKRTVAAPSVFIFPPSDEQLKSGTASVVCLLNNFYPREAKVQWKVDNALQSGNSQESVTEQDSKDSTYSLSSTLTLSKADYEKHKVYACEVTHQGLSSPVTKSFNRGEC", "Tm": 83.23},
      {"molecule": "AB200-R1a-Fab_Vk13 (antibody) heavy: QVQLVQSGAEVKKPGSSVKVSCKASGGTFSNYWMHWVRQAPGQGLEWMGATYRGHSDTYYNQKFKGRVTITADKSTSTAYMELSSLRSEDTAVYYCARGAIYHGYDVLDNWGQGTLVTVSSASTKGPSVFPLAPSSKSTSGGTAALGCLVKDYFPEPVTVSWNSGALTSGVHTFPAVLQSSGLYSLSSVVTVPSSSLGTQTYICNVNHKPSNTKVDKKVEPKSC light: DIQMTQSPSSLSASVGDRVTITCSASNDISNYLNWYQQKPGKAPKLLIYYSSDLHSGVPSRFSGSGSGTDFTLTISSLQPEDFATYYCQQYRKLPWTFGQGTKLEIKRTVAAPSVFIFPPSDEQLKSGTASVVCLLNNFYPREAKVQWKVDNALQSGNSQESVTEQDSKDSTYSLSSTLTLSKADYEKHKVYACEVTHQGLSSPVTKSFNRGEC", "Tm": 79.40},
      {"molecule": "AB200-R1a-Fab_Vk14 (antibody) heavy: QVQLVQSGAEVKKPGSSVKVSCKASGGTFSNYWMHWVRQAPGQGLEWMGATYRGHSDTYYNQKFKGRVTITADKSTSTAYMELSSLRSEDTAVYYCARGAIYHGYDVLDNWGQGTLVTVSSASTKGPSVFPLAPSSKSTSGGTAALGCLVKDYFPEPVTVSWNSGALTSGVHTFPAVLQSSGLYSLSSVVTVPSSSLGTQTYICNVNHKPSNTKVDKKVEPKSC light: DIQMTQSPSSLSASVGDRVTITCSASQDISNYLNWYQQKPGKAPKLLIYYSSNMHSGVPSRFSGSGSGTDFTLTISSLQPEDFATYYCQQFRKLPWTFGQGTKLEIKRTVAAPSVFIFPPSDEQLKSGTASVVCLLNNFYPREAKVQWKVDNALQSGNSQESVTEQDSKDSTYSLSSTLTLSKADYEKHKVYACEVTHQGLSSPVTKSFNRGEC", "Tm": 82.31},
      {"molecule": "AB200-R1a-Fab_Vk15 (antibody) heavy: QVQLVQSGAEVKKPGSSVKVSCKASGGTFSNYWMHWVRQAPGQGLEWMGATYRGHSDTYYNQKFKGRVTITADKSTSTAYMELSSLRSEDTAVYYCARGAIYHGYDVLDNWGQGTLVTVSSASTKGPSVFPLAPSSKSTSGGTAALGCLVKDYFPEPVTVSWNSGALTSGVHTFPAVLQSSGLYSLSSVVTVPSSSLGTQTYICNVNHKPSNTKVDKKVEPKSC light: DIQMTQSPSSLSASVGDRVTITCSASHEISNYLNWYQQKPGKAPKLLIYYTSSLHSGVPSRFSGSGSGTDFTLTISSLQPEDFATYYCQQYRKLPWTFGQGTKLEIKRTVAAPSVFIFPPSDEQLKSGTASVVCLLNNFYPREAKVQWKVDNALQSGNSQESVTEQDSKDSTYSLSSTLTLSKADYEKHKVYACEVTHQGLSSPVTKSFNRGEC", "Tm": 81.31},
      {"molecule": "AB200-R1a-Fab_Vk16 (antibody) heavy: QVQLVQSGAEVKKPGSSVKVSCKASGGTFSNYWMHWVRQAPGQGLEWMGATYRGHSDTYYNQKFKGRVTITADKSTSTAYMELSSLRSEDTAVYYCARGAIYHGYDVLDNWGQGTLVTVSSASTKGPSVFPLAPSSKSTSGGTAALGCLVKDYFPEPVTVSWNSGALTSGVHTFPAVLQSSGLYSLSSVVTVPSSSLGTQTYICNVNHKPSNTKVDKKVEPKSC light: DIQMTQSPSSLSASVGDRVTITCSASQDITNYLNWYQQKPGKAPKLLIYATSNLHSGVPSRFSGSGSGTDFTLTISSLQPEDFATYYCQEYRKLPWTFGQGTKLEIKRTVAAPSVFIFPPSDEQLKSGTASVVCLLNNFYPREAKVQWKVDNALQSGNSQESVTEQDSKDSTYSLSSTLTLSKADYEKHKVYACEVTHQGLSSPVTKSFNRGEC", "Tm": 80.67},
      {"molecule": "AB200-R1a-Fab_Vk17 (antibody) heavy: QVQLVQSGAEVKKPGSSVKVSCKASGGTFSNYWMHWVRQAPGQGLEWMGATYRGHSDTYYNQKFKGRVTITADKSTSTAYMELSSLRSEDTAVYYCARGAIYHGYDVLDNWGQGTLVTVSSASTKGPSVFPLAPSSKSTSGGTAALGCLVKDYFPEPVTVSWNSGALTSGVHTFPAVLQSSGLYSLSSVVTVPSSSLGTQTYICNVNHKPSNTKVDKKVEPKSC light: DIQMTQSPSSLSASVGDRVTITCSATQDISNYLNWYQQKPGKAPKLLIYYTTNLHSGVPSRFSGSGSGTDFTLTISSLQPEDFATYYCQQYYKLPWTFGQGTKLEIKRTVAAPSVFIFPPSDEQLKSGTASVVCLLNNFYPREAKVQWKVDNALQSGNSQESVTEQDSKDSTYSLSSTLTLSKADYEKHKVYACEVTHQGLSSPVTKSFNRGEC", "Tm": 83.11}
    ]}
  ]
}
